Test results taken from the supplement of paper PMC12067093, “Discovery and optimisation of a covalent ligand for TRIM25 and its application to targeted protein ubiquitination” (Chemical Science, 2025).
Targets with the largest changes are over-represented here; the source holds about 21,000 in all.

Compound: CC1Cc2ccccc2N1C(=O)C1CCCN(C1)C(=O)CCl (mixture of isomers) [TRIM25 ligand 11 (diastereomer mixture)]
Test: probe-labelled cysteine peptide fold change vs DMSO (competition) (log2 fold change); higher = less target engagement (more negative = stronger competition)
Details: THP-1, incubation time: 4 h
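Also: competitive chemoproteomic profiling in live THP-1 cells with an iodoacetamide desthiobiotin (IA-DTB) probe, comparing probe-labelled peptide intensities in compound-treated cells against DMSO-treated controls.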

Target	probe-labelled cysteine peptide fold change (10 µM)	probe-labelled cysteine peptide fold change (50 µM)
CCT5_P48643_302_ETGANLAICQWGFDDEANHLLLQNNLPAVR (UniProt P48643)	0.148	0.00759
CCDC97_Q96F63_17_GCIEPGPGHWGELSR (UniProt Q96F63)	-0.118	-0.218
COPE_O14579_148_ALHQGDSLECTAMTVQILLK (UniProt O14579)	0.065	0.0508
CLPB_Q9H078_446_QCPNAVVLFDEVDK (UniProt Q9H078)	-0.233	0.0848
CNBP_P62633_158_TSEVNCYR (UniProt P62633)	-0.0696	-0.0473
BPNT1_O95861_249_WDTCAPEVILHAVGGK (UniProt O95861)	0.0346	0.0565
CDC42_P60953_105_EKWVPEITHHCPK (UniProt P60953)	-0.809	-0.493
CLTC_Q00610_39_FQEHLQLQNLGINPANIGFSTLTMESDKFICIR (UniProt Q00610)	-0.4	-0.464
CHD4_Q14839_1468_HLCEPGADGAETFADGVPR (UniProt Q14839)	0.106	-0.0347
C16orf62_Q7Z3J2_20_AEFASCR (UniProt Q7Z3J2)	-0.0595	-0.0578
CEPT1_Q9Y6K0_30_CGDSHPESPVGFGHMSTTGCVLNK (UniProt Q9Y6K0)	0.062	-0.722
CELF2_O95319_174_GCAFVTFSTR (UniProt O95319)	-0.0617	-0.125
COPA_P53621_693_LGEVALLQGNHQIVEMCYQR (UniProt P53621)	0.343	0.186
CAND1_Q86VP6_179_QGGLLVNFHPSILTCLLPQLTSPR (UniProt Q86VP6)	0.217	-0.325
C2orf69_Q8N8R5_230_SSPSHTTNGCQGEK (UniProt Q8N8R5)	0.035	-0.603
CCAR2_Q8N163_644_PRGEASEDLCEMALDPELLLLR (UniProt Q8N163)	0.562	0.0439
COPS7B_Q9H9Q2_240_ATASSSAQEMEQQLAERECPPHAEQR (UniProt Q9H9Q2)	-0.464	-0.315
CHM_P24386_406_HSVQCLVVDK (UniProt P24386)	0.0368	0.211
CCT4_P50991_450_TLSGMESYCVR (UniProt P50991)	0.000397	0.0567
CANX_P27824_194_TPYTIMFGPDKCGEDYK (UniProt P27824)	-0.644	-0.569

Target	probe-labelled cysteine peptide fold change (10 µM)	probe-labelled cysteine peptide fold change (50 µM)
BPTF_Q12830_940_AVQMCSKPR (UniProt Q12830)	-0.232	-0.0271
COPA_P53621_85_CLFTLLGHLDYIR (UniProt P53621)	0.107	0.167
CHD8_Q9HCK8_1116_EACHIIPHDFHLQAMVR (UniProt Q9HCK8)	0.00656	0.0672
CNBP_P62633_150_CGETGHVAINCSK (UniProt P62633)	-0.0611	-0.112
C8G_P07360_188_YGFCEAADQFHVLDEVR (UniProt P07360)	0.774	0.523
CD4_P01730_41_KGDTVELTCTASQK (UniProt P01730)	-0.0702	-0.14
CIAO1_O76071_271_TIYDIAWCQLTGALATACGDDAIR (UniProt O76071)	-0.17	-0.0985
CINP_Q9BW66_120_GICELENYHYGEESK (UniProt Q9BW66)	-0.202	-0.0294
COPE_O14579_212+225_CSPTLLLLNGQAACHMAQGR (UniProt O14579)	-0.157	-0.292
CCT5_P48643_440_CPTLEQYAMR (UniProt P48643)	0.0206	-0.0638
CD3EAP_O15446_14_FSCPPNFTAKPPASESPR (UniProt O15446)	-0.00721	-0.399
CDK8_P49336_25_ERVEDLFEYEGCK (UniProt P49336)	-0.0998	-0.129
CNN2_Q99439_215_CASQVGMTAPGTRR (UniProt Q99439)	-0.451	-0.761
CDK11B_P21127_440_SVEEFQCLNR (UniProt P21127)	-0.0678	0.0296
CAP1_Q01518_375_INSITVDNCKK (UniProt Q01518)	-0.103	-0.0313
COPS6_Q7L5N1_266_EAYALCHCLPVLSTDK (UniProt Q7L5N1)	-0.137	0.124
CERS6_Q6ZMG9_236_VGTLVLCLHDSADALLEAAK (UniProt Q6ZMG9)	-0.074	-0.175
CHD9_Q3L8U1_993_CVIIDEAHR (UniProt Q3L8U1)	-0.0433	0.00104
C19orf54_Q5BKX5_186_LAQEVLGCQAK (UniProt Q5BKX5)	0.0315	-0.124
CDC34_P49427_93_MWHPNIYETGDVCISILHPPVDDPQSGELPSER (UniProt P49427)	-0.168	0.0184

Target	probe-labelled cysteine peptide fold change (10 µM)	probe-labelled cysteine peptide fold change (50 µM)
CCT8_P50990_347_LTPPVLEEMGHCDSVYLSEVGDTQVVVFK (UniProt P50990)	0.0456	-0.0666
CDCA2_Q69YH5_714_AGTDSPVSCASVTEER (UniProt Q69YH5)	-0.0611	-0.104
CAMK2D_Q13557_7_ASTTTCTR (UniProt Q13557)	0.604	0.645
CNOT6L_Q96LI5_283_KHVDGCAIFFK (UniProt Q96LI5)	-0.024	-0.00294
CHAF1A_Q13111_7_MLEELECGAPGAR (UniProt Q13111)	0.122	0.0999
CFL1_P23528_80_MLPDKDCR (UniProt P23528)	-0.669	-0.345
CAPZB_P47756_62_DYLLCDYNRDGDSYR (UniProt P47756)	-0.649	-0.535
CAPN7_Q9Y6W3_548_ESTCIHSTWDAK (UniProt Q9Y6W3)	0.41	0.238
COG6_Q9Y2V7_234_WAQSECR (UniProt Q9Y2V7)	-0.0172	-0.0634
CNBP_P62633_171_ECTIEATA (UniProt P62633)	-0.151	-0.101
CACUL1_Q86Y37_362_AGDELAYNSSSACASSR (UniProt Q86Y37)	-0.0702	-0.318
CD82_P27701_216_TQSGNHPEDWPVYQEGCMEK (UniProt P27701)	0.0676	-0.0764
CNOT6L_Q96LI5_283_HVDGCAIFFK (UniProt Q96LI5)	0.0132	0.105
CLCC1_Q96S66_60_DVSPDLSCADEISECYHK (UniProt Q96S66)	-0.0136	0.0255
CNOT9_Q92600_91+99_VCNALALLQCVASHPETR (UniProt Q92600)	0.0724	0.206
CMSS1_Q9BQ75_121_RLVIELEELNLPDSCFLK (UniProt Q9BQ75)	-0.0113	-0.228
CNBP_P62633_97+101_EQCCYNCGKPGHLAR (UniProt P62633)	-0.137	-0.214
COG1_Q8WTW3_625_LCQSLGELCPHLK (UniProt Q8WTW3)	-0.0646	-0.145
BTF3_P20290_22_GGCPGGEATLSQPPPR (UniProt P20290)	-0.0722	-0.294
